Experimental data as given in PubChem BioAssay (NCI).
Several values for one entry are separate records, joined by “and”; a condition that tells them apart may be missing. Equal entries are not always repeated.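 1) Cells in 96-well plates. 2) Compound, 48 h, 5 concentrations. 3) Linear interpolation between surrounding doses. 4) Unreached endpoint = highest concentration. Here, GI50 denotes the concentration required for 50% inhibition of growth. TGI denotes the concentration required for complete inhibition of growth.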

System: NCI-H322M lung
Test: NCI-60 cell line screen, 48 h

`CC(=O)c1c(-c2ccc(Cl)cc2)c(C#N)c(=S)n(C2OC(CO)C(O)C(O)C2O)c1C` (stereo not given) and `O=c1c2ccccc2nc(-c2cccc(Cl)c2)n1NC1OC(CO)C(O)C(O)C1O` (stereo not given) cannot be ordered by TGI: greater than 100 µM for the first, greater than 100 µM for the second.

`Cc1nc(C(=Nc2ccc(Br)cc2)Nn2cnnc2)no1` and `CCOC1c2nc3ccccc3nc2-c2ccccc2N1C(C)=O` (stereo not given) cannot be ordered by TGI: greater than 100 µM for the first, greater than 100 µM for the second.

Compared with `CC(C)OC(=O)C(NC(=O)C(CC(=O)OCc1ccccc1)NC(=O)OCc1ccccc1)NC(=O)C1C(C)(C)CCC1(C)C` (stereo not given), `O=C(CI)NC(=O)NC(=O)NCc1ccccc1` is lower in TGI: greater than 67.7 µM for the first, 29.4 µM for the second.

`CCN(CC)CCCC(Nc1c2ccc(Cl)cc2nc2ccc(OC)cc12)c1ccc(Cl)cc1` (stereo not given) and `NCCCNc1nc2ccccc2c2c(=O)c3cc(Cl)ccc3sc12` are within 1.5-fold of each other in TGI: 3.28 µM for the first, 2.86 µM for the second.

`COC(=O)C1CCC(C)CC1=O` (stereo not given) and `CCOC(=O)CNC(=O)c1[nH]cnc1/N=N/N(C)C` cannot be ordered by TGI: greater than 100 µM for the first, greater than 100 µM for the second.

`O=C1C2C(C(=O)N1Cc1ccccc1)N(Cc1ccccc1)C(=O)N2Cc1ccccc1` (stereo not given) and `O=c1c2[nH]cnc2n(-c2ccccc2)c(=S)n1-c1ccccc1` cannot be ordered by TGI: greater than 100 µM for the first, greater than 100 µM for the second.

`Cc1ccc(S(=O)(=O)N/N=c2/sc3ccccc3n2C)cc1` and `Cc1cccc2c1nc1n2C(=O)c2ccccc2-1` cannot be ordered by TGI: greater than 100 µM for the first, greater than 100 µM for the second.

Going from `Nc1ncnc2c1c(-c1ccc(Oc3ccccc3)cc1)nn2CC1SSCC1O` (stereo not given) to `O=C(/C=C\c1ccccc1)Oc1ccc(/C=C2\CCC/C(=C\c3ccc(OC(=O)/C=C\c4ccccc4)cc3)C2=O)cc1`, the TGI rises from 12.2 µM to greater than 100 µM.

First: CCCCCCC(=O)OC[n+]1ccc2c(C)c3[nH]c4ccc(OC)cc4c3c(C)c2c1
Second: COC(=O)c1ccc(NC(N)=NCCC(C)(C)c2ccc(C(F)(F)F)cc2)nc1
The TGI of the first is 8-fold lower: 1.88 µM for the first, 15.1 µM for the second.

`NC(=O)CSc1nc2ccccc2c(=O)n1N` and `Cn1c2c(c3c(=O)[nH]ncc31)Cc1ccccc1-2` cannot be ordered by TGI: greater than 100 µM for the first, greater than 100 µM for the second.

`O=C1Nc2noc(=O)nc2NO1` and `Cc1n[nH]c(=O)n1-n1cccc1` cannot be ordered by TGI: greater than 200 µM for the first, greater than 100 µM for the second.

`CCCCCCCCCCCC1=C(O)C(=O)C(CC2=C(O)C(=O)C(CCCCCCCCCCC)=C(O)C2=O)=C(O)C1=O` was tested, and the TGI was greater than 100 µM.

Compared with `COc1ccc([C@@]23Oc4cc(OC)cc(OC)c4[C@]2(O)[C@H](O)[C@H](C(=O)N(C)C)[C@H]3c2ccccc2)cc1`, `Nc1ncnc2c1c(-c1ccc(Oc3ccccc3)cc1)nn2CC1SSCC1O` (stereo not given) is 140-fold higher in GI50: 0.0231 µM for the first, 3.21 µM for the second.

`CCN(CC)CCCC(Nc1c2ccc(Cl)cc2nc2ccc(OC)cc12)c1ccc(Cl)cc1` (stereo not given) and `NCCCNc1nc2ccccc2c2c(=O)c3cc(Cl)ccc3sc12` are within 1.5-fold of each other in GI50: 1.73 µM for the first, 1.49 µM for the second.

First: O=C(CI)NC(=O)NC(=O)NCc1ccccc1
Second: COC(=O)c1ccc(NC(N)=NCCC(C)(C)c2ccc(C(F)(F)F)cc2)nc1
The GI50 of the first is 4.6-fold higher: 15.1 µM for the first, 3.29 µM for the second.

`COc1ccc([C@@]23Oc4cc(OC)cc(OC)c4[C@]2(O)[C@H](O)[C@H](C(=O)N(C)C)[C@H]3c2ccccc2)cc1` was tested, and the TGI was 0.0771 µM and 0.194 µM and 0.117 µM.
